# Experimental data: a collection of fitness landscapes (doi:10.1016/j.celrep.2020.107928)
# In all, about 81,000 sequences were measured (“one-hybrid fitness for binding NBS DNA”: median about -0.1, highest 2% from about 0.36 on). The list shows a part of the results.
# B1: Caulobacter ParB omega fusion; a variant is named by its letters at X, in order, B8GW30 (parent)
# chain: MESVVVGEPGMSEGRRGLGRGLSALLGEVDAAPAQAPGEQLGGSREAPIEILQRNPDQPRRTFREEDLEDLSNSIREKGVLQPILVRPSPDTAGEYQIVAGERAWRAAQRAGLKTVPIMVRELDDLAVLEIGIIENVQRADLNVLEEALSYKVLMEKFERTQENIAQTIGKSXSHVANXMRLLXLPDEVQSYLVSGELTAXHARAIAAAADPVALAKQIIEGGLSVRETEALARKAPNLSAGKSKGGRPPRVKDTDTQALESDLSSVLGLDVSIDHRGSTGTLTITYATLEQLDDLCNRLTRGI
# Variants of: B1
# Assay: one-hybrid fitness for binding NBS DNA (the Noc-binding site; scaled: cognate 1, non-cognate 0); higher = stronger binding
# Details: with NBS DNA site
# Method in brief: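 In E. coli USO, a HIS3 reporter with its site placed 19 bp from the promoter was used to select Caulobacter ParB variants randomised at four specificity codons. Growth lasted 48 hours at 37°C on histidine-free M9 containing 0.1 mM IPTG and 5 mM 3-AT. Fitness was taken as the log change in variant-to-wild-type read ratio from Illumina sequencing of pre- and post-selection plasmids, rescaled between the non-cognate and cognate sites.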
row,Variant,one-hybrid fitness for binding NBS DNA
1,IDTG,≤ 0.2
2,WSKG,≤ 0.2
3,QDNQ,≤ 0.2
4,QPAG,≤ 0.2
5,PFAN,≤ 0.2
6,VDVR,≤ 0.2
7,PYYF,≤ 0.2
8,YKDW,≤ 0.2
9,YQQD,≤ 0.2
10,CNCM,≤ 0.2
11,TDQR,≤ 0.2
12,AWQG,≤ 0.2
13,IVSR,≤ 0.2
14,PFGR,≤ 0.2
15,TYSN,≤ 0.2
16,TMSS,≤ 0.2
17,VWTC,≤ 0.2
18,PHSF,≤ 0.2
19,RHHE,≤ 0.2
20,NIWS,≤ 0.2
21,TCMK,≤ 0.2
22,ICDS,≤ 0.2
23,QIMD,≤ 0.2
24,HEAL,≤ 0.2
25,LMIR,≤ 0.2

row,Variant,one-hybrid fitness for binding NBS DNA
1,NSRR,≤ 0.2
2,PTYM,≤ 0.2
3,LHHG,≤ 0.2
4,YKNA,≤ 0.2
5,TFRV,≤ 0.2
6,MLSR,≤ 0.2
7,RQTE,≤ 0.2
8,HWVG,≤ 0.2
9,DGAP,≤ 0.2
10,PEGA,≤ 0.2
11,ELTC,≤ 0.2
12,TWEL,≤ 0.2
13,ARNS,≤ 0.2
14,RIYW,≤ 0.2
15,RFAM,≤ 0.2
16,KRAR,0.541
17,SNVF,≤ 0.2
18,RHNW,≤ 0.2
19,AIMF,≤ 0.2
20,VTMI,≤ 0.2
21,HNGA,≤ 0.2
22,VDDD,≤ 0.2
23,NTYT,≤ 0.2
24,TNKV,≤ 0.2
25,DQSF,≤ 0.2

row,Variant,one-hybrid fitness for binding NBS DNA
1,QDEM,≤ 0.2
2,GNNT,≤ 0.2
3,KAMI,≤ 0.2
4,WTQG,≤ 0.2
5,FEYV,≤ 0.2
6,WAHG,≤ 0.2
7,VPTW,≤ 0.2
8,YKPT,≤ 0.2
9,PHIQ,≤ 0.2
10,GASQ,≤ 0.2
11,VMQW,≤ 0.2
12,QSAW,≤ 0.2
13,TTKM,≤ 0.2
14,DIGS,≤ 0.2
15,QSAK,≤ 0.2
16,TASF,≤ 0.2
17,DLAG,≤ 0.2
18,SLFM,≤ 0.2
19,WVFS,≤ 0.2
20,SMWA,≤ 0.2
21,HMLM,≤ 0.2
22,PHDN,≤ 0.2
23,RHHS,0.443
24,PPLI,≤ 0.2
25,GHWM,≤ 0.2

row,Variant,one-hybrid fitness for binding NBS DNA
1,YYCR,≤ 0.2
2,VGAC,≤ 0.2
3,VSIR,≤ 0.2
4,AGLS,≤ 0.2
5,NANA,≤ 0.2
6,DIYG,≤ 0.2
7,IGYR,≤ 0.2
8,GPTW,≤ 0.2
9,VQPW,≤ 0.2
10,GRTW,≤ 0.2
11,ECRG,≤ 0.2
12,DASF,≤ 0.2
13,REWT,≤ 0.2
14,RGSQ,≤ 0.2
15,TLIY,≤ 0.2
16,TPYI,≤ 0.2
17,EDLD,≤ 0.2
18,ATRF,≤ 0.2
19,KCQS,≤ 0.2
20,NHSG,≤ 0.2
21,LFQG,≤ 0.2
22,HMNL,≤ 0.2
23,WTFI,≤ 0.2
24,VFAG,≤ 0.2
25,GDNV,≤ 0.2

row,Variant,one-hybrid fitness for binding NBS DNA
1,TGEF,≤ 0.2
2,QCIL,≤ 0.2
3,QQWC,≤ 0.2
4,ISRT,≤ 0.2
5,RVKV,≤ 0.2
6,LCRI,≤ 0.2
7,VPPH,≤ 0.2
8,AQRG,≤ 0.2
9,YVPA,≤ 0.2
10,GSEC,≤ 0.2
11,ENWV,≤ 0.2
12,NWTC,≤ 0.2
13,FYHS,≤ 0.2
14,ARAG,≤ 0.2
15,SNNW,≤ 0.2
16,SCYN,≤ 0.2
17,KRIV,≤ 0.2
18,RFVE,≤ 0.2
19,QVIF,≤ 0.2
20,LEVL,≤ 0.2
21,DMEG,≤ 0.2
22,PDRH,≤ 0.2
23,RHCV,≤ 0.2
24,LRHK,≤ 0.2
25,YYPS,≤ 0.2

row,Variant,one-hybrid fitness for binding NBS DNA
1,QGQR,≤ 0.2
2,HTIY,≤ 0.2
3,LPYR,≤ 0.2
4,RVPK,≤ 0.2
5,LENR,≤ 0.2
6,FWEG,≤ 0.2
7,HIAS,≤ 0.2
8,WSHT,≤ 0.2
9,QFGS,≤ 0.2
10,LLQY,≤ 0.2
11,HDHR,≤ 0.2
12,LIYR,≤ 0.2
13,RNFQ,≤ 0.2
14,YQTN,≤ 0.2
15,CRRC,≤ 0.2
16,SKQF,≤ 0.2
17,QPVF,≤ 0.2
18,NTSG,≤ 0.2
19,QRRL,0.364
20,PHLT,≤ 0.2
21,QAQT,0.364
22,APWG,≤ 0.2
23,CSMD,≤ 0.2
24,KWAR,≤ 0.2
25,RGFL,≤ 0.2

row,Variant,one-hybrid fitness for binding NBS DNA
1,AYWA,≤ 0.2
2,DLFE,≤ 0.2
3,SLCV,≤ 0.2
4,INYP,≤ 0.2
5,WSNC,≤ 0.2
6,QGKL,≤ 0.2
7,AQIV,≤ 0.2
8,SFTY,≤ 0.2
9,KCCV,≤ 0.2
10,HPCW,≤ 0.2
11,WYHG,≤ 0.2
12,TRGH,≤ 0.2
13,RSRK,≤ 0.2
14,PATP,≤ 0.2
15,HVGL,≤ 0.2
16,RYDH,≤ 0.2
17,LRSV,≤ 0.2
18,TWMY,≤ 0.2
19,FYVC,≤ 0.2
20,RAAC,≤ 0.2
21,PIQC,≤ 0.2
22,IRYC,≤ 0.2
23,SPAV,≤ 0.2
24,GFNR,≤ 0.2
25,KTSK,≤ 0.2

row,Variant,one-hybrid fitness for binding NBS DNA
1,QGNE,≤ 0.2
2,WFKG,≤ 0.2
3,VDLC,≤ 0.2
4,TVGV,≤ 0.2
5,TLGW,≤ 0.2
6,DAMY,≤ 0.2
7,TTVT,≤ 0.2
8,WQWS,≤ 0.2
9,QCTE,≤ 0.2
10,FDRC,≤ 0.2
11,DIRG,≤ 0.2
12,RGKP,≤ 0.2
13,WNHR,≤ 0.2
14,SYAR,≤ 0.2
15,TKGP,≤ 0.2
16,SNSN,≤ 0.2
17,SRVS,≤ 0.2
18,GSRC,≤ 0.2
19,RLQC,≤ 0.2
20,ATER,≤ 0.2
